Laboratory results as given in the supplement of paper PMC10338343.
± gives the standard deviation. The entries are a selection whose mix differs from that of the whole data set.

tested on: MIWI (PIWIL1) piRISC loaded with piRNA #1 (30 nt); experiment: pre-steady-state target cleavage rate (min^-1); MIWI and MILI are mouse PIWI proteins and EfPiwi is from a freshwater sponge; tags in brackets are library labels; higher = faster piRNA-guided slicing of the target; settings: guide: piRNA #1 5'p-UGAGGUAGUAGGUUGUAUAGUAUCCAGAGG; auxiliary factor: 500 nM mouse GTSF1
How it was run: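 With or without 500 nM GTSF1 partner protein, 1 nM active affinity-purified piRISC carrying one synthetic guide was mixed with 0.1 nM transcribed, DNA-blocked target RNA library in HEPES–potassium acetate buffer at 33 °C for 0–8 or 0–960 min. Uncleaved targets were sequenced and normalised to depth and to weakly complementary targets, three trials were pooled, and k3 was capped at 0.0001 min^-1. The pre-steady-state cleavage rate came from a burst-and-steady-state fit.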

Sequence	pre-steady-state target cleavage rate
CCUCUGGAUACUAUACAACCUACUACCGUCA	1.29 ± 0.084
GGAGAGGAUACUUUACAACCUACUACCUCA	1.51 ± 0.071
GGAGUGGAUACUAUACAUCCUACUACCACA	0.437 ± 0.032
GCUCUGGAUACUAAACAACCAACUACCUCA	0.171 ± 0.022
CCUCUGGAUUCUAUACAACCUAGUACCUCA	0.302 ± 0.054
GGAGACCUUACUAUACAACCUAGAACCUCA	0.0844 ± 0.017
GGAGUGGAUACUAUACAUCCUACUACGUCA	0.0715 ± 0.01
CGUCUGGAUUCUAUACAACCUACUACCUCA	1.82 ± 0.11
GGUCUGGAUACUAUAGAACCUACUACCUCA	0.995 ± 0.065
GGAGACGAUACUAUACAAGCUACUUCCUCA	0.628 ± 0.033
GGAGACCUAUGUAUACAACCUACUUACCUCA	0.107 ± 0.015
GGAGACCAUAGUAUACAACCUACUACGUCA	0.249 ± 0.031
GGAGACCUUACUAUUACAACCUACUACCUCA	0.712 ± 0.075
CCUCUGGAUACUAUACAACCUACUAUCCUCA	0.472 ± 0.047
GGAGAGGAAACUAUACAACCUACUACCUGA	0.256 ± 0.037
GGAGACCAUACCUAUACAACCUACUACCUCA	0.775 ± 0.073
GGAGACCACUACUAUACAACCUACUACCUCA	1.48 ± 0.12
GGAGACCAUACUAUACAACCUACUAGGUCA	0.0129 ± 0.0046
GGAGACCAUACUAUACAACCUACUAGCUCA	0.708 ± 0.058
GGAGAGGAUACUAUACUACCUUCUACCUCA	0.216 ± 0.018
CCUCUGCAUACUAUACAACCUUCUACCUCA	0.678 ± 0.035
GGUCUGGAUACUAUACAACCAACUACCACA	0.112 ± 0.012
GGUCUGGAAAGUAUACAACCUACUACCUCA	1.58 ± 0.11
GGUCUGGUUACUAUACAACCAACUACCUCA	0.157 ± 0.015
